Target: T1, ILT4 on CHO-ILT4 cells (Manufacturer: Kang Yuan Bochuang, Cat: KC-1473) (UniProt Q8N423 22-597, limits assumed)
T1 construct: whole, on cells; also called ILT4 cell line
Assay: flow cytometry on CHO-ILT4 cells, 7-point 5-fold titration, anti-human IgG Fc detection

T1 sequence (Q8N423 22-597 limits assumed): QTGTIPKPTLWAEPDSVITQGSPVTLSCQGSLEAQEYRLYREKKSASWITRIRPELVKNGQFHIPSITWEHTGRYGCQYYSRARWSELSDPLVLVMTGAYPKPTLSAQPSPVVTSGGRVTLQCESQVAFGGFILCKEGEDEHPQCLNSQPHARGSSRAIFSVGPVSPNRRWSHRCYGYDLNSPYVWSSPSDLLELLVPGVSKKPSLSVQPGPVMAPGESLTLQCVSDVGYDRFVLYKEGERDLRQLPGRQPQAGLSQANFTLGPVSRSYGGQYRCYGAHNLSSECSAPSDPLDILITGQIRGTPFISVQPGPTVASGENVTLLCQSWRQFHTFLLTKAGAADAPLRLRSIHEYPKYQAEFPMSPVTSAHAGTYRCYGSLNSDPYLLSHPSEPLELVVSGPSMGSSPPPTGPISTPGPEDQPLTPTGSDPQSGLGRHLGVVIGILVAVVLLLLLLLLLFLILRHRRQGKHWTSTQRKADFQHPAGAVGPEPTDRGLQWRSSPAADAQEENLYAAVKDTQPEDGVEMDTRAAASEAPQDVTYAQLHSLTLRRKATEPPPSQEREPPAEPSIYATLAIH

B1: the antibody (chimeric antibody) of the present invention (VHH SEQ ID NO: 4 and Fc SEQ ID NO: 7) (Fc fusion)
chain: EVQLVESGGGLGQAGGSLRLSCVVSGRTFSRYAMGWFRQAPGKEREFVAAISWSPGDITTYADSVRGRFTISRDNAKNTVYLQMNSLKPEDTAVYYCAADPTAWGTQYDYWGQGTQVTVSS[human IgG4 Fc with S228P (EU numbers) not shown]
notes: VHH-Fc; Detected with an anti-human IgG Fc-gamma secondary antibody; The control was an irrelevant IgG4
B1 was tested, and the EC50 was 0.057 µg/mL.

Reference: US20260028401A1 (SHENGHE CHINA BIOPHARMACEUTICAL, published 2026)
